The other results are listed elsewhere or left out. At the low end of the ranking, values are background and their order means little.
target: T1, GST-Rok (full length) (UniProt O34857); assay: protein binding microarray; settings: Rok is a gene silencer of Bacillus subtilis; high values mean tight binding; most listed sequences are background and not binding sites; double strand, one strand shown;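 further: rank score from −0.5 (least bound) to 0.5 (best bound)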
T1 sequence: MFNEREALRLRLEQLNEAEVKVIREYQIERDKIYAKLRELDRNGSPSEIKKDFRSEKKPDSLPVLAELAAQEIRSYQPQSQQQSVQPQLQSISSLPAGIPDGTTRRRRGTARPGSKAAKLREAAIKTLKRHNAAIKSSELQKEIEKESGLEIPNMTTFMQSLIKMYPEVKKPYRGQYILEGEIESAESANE

Sequence | binding signal [E-score]
GTACGATA | 0.252
CATGCGAG | -0.175
CATAGAGG | -0.0596
AACAAAAA | -0.019
GGAAAAAA | -0.0587
CAGGTTAG | -0.184
CACAATAA | 0.26
CACTGTCG | -0.0512
GATAATAA | 0.369
AACCGACG | -0.112
CGCTGCTA | 0.116
ACGACCGT | -0.00631
CCACCCCG | -0.345
ATGAGTAG | 0.316
AGCATCTG | -0.053
CATAACCC | -0.169
AACACCGG | -0.14
GCTCGAGA | -0.0197
CTACCTGC | -0.07
ACCGGCGC | -0.232
AAAGAGGC | -0.25
GATACCGA | 0.136

Sequence | binding signal [E-score]
AACGGGAA | 0.0903
AACCTTAT | 0.0669
ATCACCTA | 0.102
ATAGATGC | 0.162
ATCGTAGC | 0.0116
AAGATTCA | 0.126
CCAGGGTA | -0.0603
CTTAACCC | 0.0276
AATTGAAG | 0.209
GCCCCGAC | -0.352
AATATTGC | 0.117
GTGCATAA | 0.166
CATTGCAC | 0.141
CGCTGCAA | 0.0744
CCTAGTAC | 0.125
AAAGAGTT | 0.073
ATCAGTCA | -0.0737
ACAGCCCA | -0.143
AGGTAGCG | 0.22
AACCATTG | -0.045
CAGTGCAG | -0.211
TAAAGGAA | -0.0673

Sequence | binding signal [E-score]
CTTTGAAA | -0.0953
CTACGGGC | -0.0326
CAAAAAGA | -0.0731
CGGCCGCA | -0.313
GAAAATGA | 0.0154
CCTAACGC | -0.104
CAGACCCC | -0.473
AAACCAAG | -0.0743
GGGGTGCA | -0.195
AATCTTGC | 0.0665
AGCGGTGG | -0.157
AGCAATAT | 0.284
ATGCCGAC | -0.0736
ACCTTCCC | -0.261
ATGAGCTC | -0.222
ACCGTAGG | -0.168
GATGTGCA | 0.00441
AGCCAGTA | -0.153
CACGTTGG | -0.117
CGAAATTC | 0.341
GCATGCGA | -0.148
ACGGAACG | -0.0661

Sequence | binding signal [E-score]
TCCCTAGA | -0.0578
AAGAGTCT | -0.0329
CGATAGAC | 0.0161
CCCACCGC | -0.308
AATCTTAA | 0.0509
AAATGTAG | 0.297
AAACATCG | 0.00727
CCCTGAAA | -0.256
AATTTCCT | 0.211
CGCGATGC | -0.0559
AGTAGATA | 0.442
GTAGCGTA | 0.291
CCTCTGCG | -0.0339
GACGTTCC | -0.151
TACGCCGA | -0.0744
GCAAGGAC | -0.139
AAACATAA | 0.311
CGTTCTCA | 0.242
AACGGCGA | -0.226
CACAACTG | -0.0314
ACCAATAG | 0.134
CTCCCCGA | -0.3

Sequence | binding signal [E-score]
CGCTGCGC | -0.241
ACAACTTG | 0.187
CCGTCTTC | -0.214
TCGCTTAA | 0.105
AGGACATA | 0.0316
ATTACCAA | 0.181
CTAGCTTC | 0.0674
GGAACTCC | -0.202
CCGCGAGA | -0.205
AGAAGTGC | 0.159
GAGCGGCA | -0.282
TACACCGA | 0.000776
AAGGCTGG | -0.238
CCGAAGTC | -0.227
ACCCATCG | -0.0326
TTATAGAA | 0.198
ATTACAGG | 0.0681
AAGGGGCG | -0.371
ACCTCGGA | 0.102
ACGGACTC | -0.246
GGATGCTA | 0.155
CGGCGATA | 0.0772

Reference: paper PMC6212790
